Self-cleavage data for 84 variants are collected here from the RNAGym collection of RNA variant scans (doi:10.1093/nar/gkz1192).

The source gives no read counts; variants with many changes may rest on few reads.

First the molecules themselves.
B1: CPEB3 Ribozyme (parent)
chain: UAACAGGGGGCCACAGCAGAAGCGUUCACGUCGCAGCCCCUGUCAGAUUCUGGUGAAUCUGCGAAUUCUGCUGUAUAUCUC

The series covers variants of B1. In words: self-cleavage, relative activity (ratio to wild type); higher = more cleavage; in vitro, sequencing. The method, boiled down:
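After error-prone PCR and barcoding, CPEB3 ribozyme mutant libraries were transcribed with T7 RNA polymerase at 37°C for 5 hours, then given 15 min with DNase I before an EDTA stop, and they cleaved during both steps. Reverse transcription with template switching preceded Illumina sequencing. Relative activity divides a variant's cleaved/total read fraction by the unmutated ribozyme's. At least 5 reads were required per variant, and three batches were averaged.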
Turning to U26C A47G C50A U66C, the self-cleavage turned out to be 0.2. Next, U26C C44G C59G: 0.13; U26A U51C U54G A56G: 0.19. In the case of U26C A56U A57G, the self-cleavage was 0.17.

U26C A47G U49C U74A: the self-cleavage was 0.15.

Turning to U26C C29G U31C A35G U49C, the self-cleavage is 0.06. With U26C A28U U31C A35U A57G A64U U74A, the self-cleavage was 0.06. For U26A C59A A75U the value was 0.25; for U26A U43C U67C, 0.37.

In the case of U26A U31C U49C A64U, the self-cleavage was found to be 0.05. Turning to U26C C38A A45G U54A U72C, the self-cleavage was found to be 0.18. For U26C C32U C59A U74A the value was 0.19; for U26C A56G A64G, 0.18. For the variant U26A G30A A35U U48G A56C, the self-cleavage is 0.09. As for U26A U41A U67C U78C, the self-cleavage stood at 0.18. For U26A U51A A56G U72A the value was 0.44.

For U26C A56G U69A, the self-cleavage amounted to 0.22.

U26A U54A U76A: the self-cleavage worked out at 1.05.

For U26C A28G U54A U58C U60C C79A, the self-cleavage was 0.07. Next, U26C A47G A56G: 0.33. On to U26C G42C A77C, for which the self-cleavage came out at 0.11. For U26C A45G A47U U49C U60C A65G U74C the value was 0.17.

With U26C A28G U41A A57G U78C, the self-cleavage was 0.25. In the case of U26C A28G A57G, the self-cleavage was 0.25. For U26C A45U U49C A64G the value was 0.13; for U26C A28G U69A U76C, 0.2; for U26C A56G U72C A77U, 0.75. Next, U26C C27U U60C: 0.17; U26A G36C U67C U76A: 0.09. In the case of U26C A56C C62A U80C, the self-cleavage amounted to 0.15. On to U26C A28U A56G, for which the self-cleavage is 0.27.

Take U26C C39A C59G U80G: the self-cleavage is 0.06. For U26A U43C U60C U78C the value was 0.11; for U26C A45G U51A U54C U69C U72C, 0.09. Regarding U26C A57G U58C, the self-cleavage came to 0.16. For U26A U72C U80C the value was 1.12.

Regarding U26C A35U U41C U49C, the self-cleavage was 0.2. For the variant U26C C32U A47G, the self-cleavage came out at 0.24.

Regarding U26A U51A U69C U78A, the self-cleavage worked out at 0.45. For U26C C38A U41C U60C, the self-cleavage turned out to be 0.27. For U26C A45G U78C the value was 0.27.

U26C G53A U58G U69A U72A: the self-cleavage worked out at 0.08. Next, U26C A28U U43A U49C U58G C68A C71G: 0.11; U26C A28G U60C C81U: 0.15; U26C C38A U41C A47G U48C U69C U80C: 0.2. Consider U26C A35U G42A U69C, for which the self-cleavage was determined as 0.2. Regarding U26A U31C G33A U51A A64C, the self-cleavage was 0.06. As for U26C A57U U67A, the self-cleavage stood at 0.34. As for U26C A45G C79A, the self-cleavage is 0.24.

With U26C A45G A47G, the self-cleavage is 0.37. Consider U26C C29G A45G, for which the self-cleavage stood at 0.19. With U26C A35G U51A, the self-cleavage was 1.15.

With U26C C32A U51C A65U U72C U76C, the self-cleavage was found to be 0.11. Consider U26C A57G A65U U80A, for which the self-cleavage stood at 0.6.

U26C A28U A45G U67C: the self-cleavage is 0.15. On to U26A U43C U67G C79U, for which the self-cleavage worked out at 0.18. For U26A U48C U78C the value was 0.52; for U26C A35U U60C G70A C79U, 0.07; for U26C C38A U80C, 0.27. Next, U26C C32A C68U: 0.18; U26A C62G U69G U78C: 0.2; U26C G33C U76A A77U: 0.19. U26A U74C U76C: the self-cleavage was 1.2. For U26C G33A U72G U78C the value was 0.12; for U26A U54A U58C U67A U80C, 0.18.

For the variant U26A C40U U51C, the self-cleavage is 0.2. As for U26C A28U U48C U67C, the self-cleavage stood at 0.32.

Consider U26C A28G A35U A47G A57U, for which the self-cleavage came out at 0.08. Consider U26A G33A C34U A45G, for which the self-cleavage is 0.08. As to U26C G70U U78A, the self-cleavage was 0.16.

As for U26C A64G U72A, the self-cleavage stood at 0.21. Next, U26C A28C U67C: 0.1; U26A U31A U51A A65G: 0.21. For U26C C38G U41C A56G U76C the value was 0.04; for U26C C38A A64U, 0.24; for U26A C44U U78A, 0.56. Next, U26C G52A A65G U78C: 0.13; U26C C39G U49C: 0.2.

For U26C C29A U58A U78A, the self-cleavage amounted to 0.18. Consider U26C C38A A56G, for which the self-cleavage is 0.13. Consider U26A U48C A77C, for which the self-cleavage was determined as 0.34. Next, U26A U66C U72C: 0.45; U26C C38A U69A: 0.15; U26C A64G G70U U72A: 0.12.
